Results from the supplement of paper PMC3334620.
In all, about 33,000 sequences were measured (“E-score (-0.5 to 0.5)”: median about -0.032, highest 2% from about 0.36 on). The list shows a part of the results.

Molecular target: T1, Sko1 (UniProt Q02100)
T1 sequence: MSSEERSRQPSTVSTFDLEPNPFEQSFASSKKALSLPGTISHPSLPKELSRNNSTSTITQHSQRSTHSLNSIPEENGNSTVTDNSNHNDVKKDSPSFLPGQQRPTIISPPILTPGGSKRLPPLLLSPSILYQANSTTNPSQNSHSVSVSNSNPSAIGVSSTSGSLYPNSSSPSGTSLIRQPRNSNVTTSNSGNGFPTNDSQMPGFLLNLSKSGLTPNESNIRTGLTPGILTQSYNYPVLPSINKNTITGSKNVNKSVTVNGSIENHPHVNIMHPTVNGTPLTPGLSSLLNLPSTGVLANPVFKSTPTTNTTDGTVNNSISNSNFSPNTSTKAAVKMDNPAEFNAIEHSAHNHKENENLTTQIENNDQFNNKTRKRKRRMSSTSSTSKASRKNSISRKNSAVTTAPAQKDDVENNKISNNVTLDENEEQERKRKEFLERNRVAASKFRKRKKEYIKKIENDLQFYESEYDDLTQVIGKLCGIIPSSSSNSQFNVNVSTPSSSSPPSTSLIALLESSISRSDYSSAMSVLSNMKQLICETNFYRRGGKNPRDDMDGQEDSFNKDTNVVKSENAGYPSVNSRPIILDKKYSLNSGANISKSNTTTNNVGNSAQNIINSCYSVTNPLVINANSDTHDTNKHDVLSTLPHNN
Experiment: PBM E-score (8-mer binding enrichment) (E-score (-0.5 to 0.5)); higher = stronger / more preferred TF binding; most listed sequences are background and not binding sites
Settings: protein concentration: 200 nM; construct: GST-full length
Procedure, shortened: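 PURExpress in vitro transcription/translation supplied GST-tagged yeast transcription factors, either full-length or DNA-binding domain. Applied at about 100-200 nM to universal all-10-mer Agilent arrays double-stranded by primer extension, the bound protein was detected with fluorescent anti-GST. E-scores, modified Wilcoxon-Mann-Whitney statistics, were given by the Universal PBM Analysis Suite to ungapped eight-base words pooled with their reverse complements after masliner normalisation.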

Sequence	PBM E-score
CGCCGTGC	-0.189
CCGTGAGG	-0.306
CGATACTC	-0.149
CCCAGGCA	-0.382
AACGGCCG	-0.14
AGACGTAC	0.395
AACCTCTC	-0.198
TGTTAGAA	0.0715
ACACCTAT	0.143
GGCTGGGA	-0.314
CATCCCGA	-0.132
GCCTCTCA	-0.182
GTATAAAA	0.249
GTAACTTA	0.262
GGTTTCAC	-0.0471
TCGTTAGA	-0.101
AGTTCTAT	-0.0676
ATGCGGAG	-0.244
ACAACATG	0.17
ACGAGTGA	0.162
CTGTTGGC	-0.256
GGCGCGAA	-0.151
GTGAACAC	0.00302
ATATATTA	0.295
AGTGACCA	-0.178

Sequence	PBM E-score
TCTTAGCA	-0.0369
AGTAAGTG	-0.0892
TCCGAACA	-0.124
AAAGGGGA	-0.232
ACACTGTG	0.126
ACACGCAC	0.158
CGCGCGAC	0.0535
CAGAAGGG	-0.147
ATCCGCCC	-0.285
GACACACA	0.178
ACGCCACG	0.229
CCGCCAGA	-0.0664
CAGCAGCC	-0.0687
ACGGTCAC	-0.121
CACGCAAC	0.379
AACACCTA	0.0909
CCCATGCC	-0.26
GCTACCCC	-0.342
CGTACCAC	0.253
GATAAGCC	-0.294
CCGCTCCA	-0.334
ACCCACCG	-0.0732
GTAATCAC	0.25
AGCGCACA	-0.121
CGTAGTTA	0.357

Sequence	PBM E-score
ATCGGGAA	0.0139
CACGCGTG	0.186
CCGATCAG	-0.185
TACCCAGA	-0.102
ACGTTAAT	0.32
CACCGAAC	-0.0581
CCCCGTTC	-0.171
AACCGTAC	-0.103
GCGGCCAA	-0.226
ATTCCTGG	-0.187
GAAGGGGA	-0.118
ATTACTAG	-0.023
ACATGGGA	-0.105
GGCTTGTA	-0.158
CCCGTAAA	-0.102
AGGCTCCA	-0.175
CATATTAG	0.203
GACCTTCC	-0.0895
GACCGGTC	-0.0591
GTATGTAA	0.312
CACAATTA	0.267
ACACGGAC	-0.113
CATCTCAC	0.0578
CTCTCTCA	-0.101
CTCCGGCC	-0.304

Sequence	PBM E-score
CACACACC	-0.149
AACCGATC	-0.0994
GTCACATA	0.32
AGCACCAA	-0.158
AAGGATTG	0.0863
ACATCGTG	0.0903
CCATCCGC	-0.0352
AAGTTTGT	0.0394
GCCTTACA	-0.0297
CGGATCAC	0.0411
AAGTTCTC	-0.203
AGTAAGCG	0.0351
CCACCGTC	-0.325
TATGCTAA	0.0795
AGACAGCC	-0.219
TATACGGA	0.00941
CCCTTTAA	-0.0757
CTGAACGA	-0.0578
AAGTACCG	-0.032
CACGCCTG	-0.0166
CGCATTGC	0.18
ATGCCGTA	0.169
ATCGAAGA	0.0616
CTCCTCTC	-0.299
GCCCCCAC	-0.315

Sequence	PBM E-score
CGTAATAA	0.434
TACAGCCA	-0.177
TTCCACAA	-0.0146
CGTATCGC	0.234
ACGAGGAC	-0.205
CGCACTAA	0.00313
CAAGGCAG	-0.285
AGGCGTGA	0.121
CCTCAAGG	-0.172
TGGCGTAA	0.414
ATGCAGGC	-0.024
CGATCCAC	0.0169
AAAGAGGC	-0.141
ACTGACAC	-0.0019
AAGGGAAT	0.109
ATTCCACC	-0.023
GAGCCGAA	-0.117
AAAACAAC	-0.0231
AAAATAAG	0.153
ATTGCTTC	-0.109
CAGGTTGA	-0.109
CCTCCATC	-0.249
CACATAGG	0.0316
GCGCCTCA	-0.268
CGAACGCA	0.253

Sequence	PBM E-score
AACCGGCA	-0.294
ATCGCGGC	-0.0416
CCATGCAG	-0.171
AGGGCAAC	-0.12
ACATTTCT	0.0757
CACTCAAG	-0.0751
CCCTTAAA	0.0491
CCCATATC	-0.0139
ATTTCCAG	-0.028
GCTTCTAA	0.0137
CGCAACAA	0.298
ATCTTAAT	0.125
CTGGTTAC	-0.00958
ATTTGGGG	-0.0232
TCGGCCCA	-0.0925
CAAGCGAA	0.124
GGCTCGGA	-0.342
CAAAGTTA	0.0387
CCTTAGTC	-0.154
GAGGCGAC	-0.29
AGCAACTA	0.0346
GGTAGGGA	-0.0404
AAGGCCGG	-0.304
TCGTTACA	0.0698
GCTTAGAA	0.049

Sequence	PBM E-score
AATCCATC	-0.0322
CTGTAGCA	-0.162
GAGTTCCA	-0.0907
AGCGTGCC	-0.142
ACTGGCTA	-0.178
CTCAGTAC	-0.0699
CGTTTCTC	-0.0661
GCTGTCCC	-0.146
CGCCCCAA	-0.0448
ACATCGAA	0.152
AGATAGGA	-0.166
AGGAGTAG	-0.0306
AGGACCAA	-0.0737
AACTCCAA	-0.0583
CCACCTAC	0.165
CATAAAAG	0.0278
CAACAAGA	0.0102
AGAAACAC	0.113
CCCGCTAC	-0.15
ACTTACAT	0.152
AAAAGGAT	0.0687
GACGTCAC	0.487
